Over roughly 110,000 compounds, “z-score” has its median near -0.1; the highest 2% begin near 2. The list shows a part of the results. Activity calls are given as the source filed them.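 Rule for the calls: active = z-score in the third read window above 3 or below -3; inactive = the rest.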

This experiment has as its target Metabotropic glutamate receptor 8 (Rattus norvegicus) (UniProt P70579). The experiment can be described thus: mGluR8 Gi/Go-coupled signaling modulation – cell-based, rat, thallium flux, HTS, primary screen (AID 488969). The conditions noted are these: HEK293 rat mGluR8, GIRK (G protein-gated inwardly rectifying potassium channel) thallium flux, FluoZin2; at 10 µM; stronger effect = higher value; submaximal glutamate (EC20) added with thallium.
Sequence of UniProt P70579 (P70579 whole entry, looked up): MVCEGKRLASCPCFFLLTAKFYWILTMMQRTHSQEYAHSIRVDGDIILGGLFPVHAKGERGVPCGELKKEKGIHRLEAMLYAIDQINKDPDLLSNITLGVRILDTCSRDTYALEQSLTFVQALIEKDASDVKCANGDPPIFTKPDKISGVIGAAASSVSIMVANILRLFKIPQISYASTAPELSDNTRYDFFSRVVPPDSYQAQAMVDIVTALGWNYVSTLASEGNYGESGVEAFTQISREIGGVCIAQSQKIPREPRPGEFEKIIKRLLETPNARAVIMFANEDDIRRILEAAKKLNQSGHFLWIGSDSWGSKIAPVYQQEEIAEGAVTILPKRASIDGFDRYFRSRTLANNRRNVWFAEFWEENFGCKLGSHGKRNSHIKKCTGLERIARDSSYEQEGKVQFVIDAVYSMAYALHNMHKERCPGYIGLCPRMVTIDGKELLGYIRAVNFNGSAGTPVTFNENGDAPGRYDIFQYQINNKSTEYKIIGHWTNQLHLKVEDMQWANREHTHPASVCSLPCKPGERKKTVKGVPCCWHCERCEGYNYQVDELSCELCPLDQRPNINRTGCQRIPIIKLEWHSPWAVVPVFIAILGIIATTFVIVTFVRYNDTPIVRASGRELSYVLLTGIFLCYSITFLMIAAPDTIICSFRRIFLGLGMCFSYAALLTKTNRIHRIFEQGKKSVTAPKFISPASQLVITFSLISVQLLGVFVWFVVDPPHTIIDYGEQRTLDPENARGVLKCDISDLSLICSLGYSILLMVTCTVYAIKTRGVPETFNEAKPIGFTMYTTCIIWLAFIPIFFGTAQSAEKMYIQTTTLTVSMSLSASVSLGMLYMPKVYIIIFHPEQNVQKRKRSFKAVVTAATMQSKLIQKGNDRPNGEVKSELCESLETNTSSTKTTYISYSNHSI
On to `CC12CN3CCN(CC(C3)/C1=N\N=C1/C3CN4CCN(C3)CC1(C)C4)C2`, for which the z-score was -0.673.

In turn, `Cc1ccc(NC(=S)N/C(=N/S(=O)(=O)c2ccccc2)c2ccccc2)cc1` registered a z-score of 1.36.

As for `O=C(c1ccccc1)N1CCC(c2nc(-c3ccc(S(=O)(=O)N4CCOCC4)cc3)no2)CC1`, the z-score is -0.281.

As to `Cc1nc2c(sc3nc4c(cc32)COC(C)(C)C4)c(=O)n1Cc1ccccc1`, the z-score is -0.288.

In turn, `O=C(Cc1ccccc1)N/N=C/c1cccs1` came in with a z-score of -0.0533.

`COc1cc(C(C)=O)ccc1Oc1ncnc2c1cnn2-c1cccc(Cl)c1`: the z-score was -0.276.

Compound `c1ccc(CSc2nnnn2-c2ccccc2)cc1` gave a z-score of -0.542.

Compound `CCn1c(O)c(N=NC(=O)C2C(=O)NCC2c2ccccc2)c2ccccc21` (configuration not stated) gave a z-score of -1.27.

Consider `CCN1C(=O)/C(=C2\C=Cc3ccccc3N2CC)SC1=S`, for which the z-score is -0.394.

`Cc1ccc(C)c(Cc2c(C)nc(C)[nH]c2=O)c1` came in with a z-score of -0.437.

`O=C1NCCNC1(c1c[nH]c2ccccc12)C(F)(F)F` (configuration not stated): the z-score was found to be 0.109.

Compound `CC(Oc1ccccc1)C(=O)Nc1nc2c(s1)C(=O)CC(C)(C)C2` (configuration not stated) had a z-score of -0.467.

In turn, `CCC(NC(=O)Nc1nnc(C(F)(F)F)s1)(C(F)(F)F)C(F)(F)F` had a z-score of 0.241.

As to `COc1ccc(N2CCN(C(=O)Cc3cccs3)CC2)cc1`, the z-score is -0.253.

In turn, `CCOC(=O)N1CCN(C(=O)c2cn(CC(C)C)c(=O)c3c2c2ccccc2n3C)CC1` came in with a z-score of 0.017.

On to `Nc1ccccc1C(=O)N(Cc1ccccc1)Cc1ccccc1`, for which the z-score was -0.434.

`O=C(NC1CCCC1)c1ccc(S(=O)(=O)N2CCCC2)cc1` showed a z-score of -0.088.

The compound `Cc1ccnc(NC(=O)c2ccc(N3C(=O)CCC3=O)cc2)c1` returned a z-score of 1.29.

Regarding `C=CCNc1nc(-c2ccccn2)nnc1-c1ccccc1`, the z-score was 0.406.

Consider `Cc1cc(C)cc(OCC(=O)Nc2cccc(-c3nc4ncccc4o3)c2)c1`, for which the z-score is -0.0133.

Take `Cc1occc1-c1nnc(SCC(=O)Nc2ccccc2-c2ccccc2)n1C`: the z-score turned out to be 0.802.

The compound `Cc1ccc(C(=O)Cn2ncsc2=N)cc1` displayed a z-score of 0.0685.

`CC(SC(=S)N(C)Cc1cccs1)C(=O)O` (configuration not stated): the z-score was 0.108.

As for `CCOC(=O)Nc1ccc2c(c1)N(C(=O)CN(CC)CC)c1ccccc1C=C2`, the z-score turned out to be 0.6.

As to `O=C1CC(=C(c2ccccc2)c2ccccc2)C(=O)N1CCCCN1CCN(c2ccccc2)CC1`, the z-score was determined as 0.472.

Consider `COc1ccc(N(C(=O)c2cnccn2)C(C(=O)NC2CCCCC2)c2ccc(Cl)cc2)cc1` (configuration not stated), for which the z-score is -0.0526.

`CCC(c1nnnn1Cc1ccc(F)cc1)N1CCN(C2CCCCC2)CC1` (configuration not stated) gave a z-score of 0.911.

With `O=C(NC(Cc1ccccc1)c1nc2ccccc2[nH]1)C1CC(=O)N(c2ccc3c(c2)OCCO3)C1` (configuration not stated), the z-score was -0.449.

Compound `CC12CCC(C(=O)NCC3CCCO3)(OC1=O)C2(C)C` (configuration not stated) gave a z-score of -0.214.

Regarding `Cc1ccc(SCC(=O)NC(=O)Nc2ccc3c(c2)OCCO3)c(C)c1`, the z-score was -0.065.

The compound `Cc1cc(OCCN2CCOCC2)nc2ccccc12` registered a z-score of -0.295.

Compound `N#Cc1c(NC(=O)/C=C/c2ccco2)sc2c1CCCC2` had a z-score of -0.0129.

`Cc1ccccc1C(=O)Oc1ccc(Sc2ccc(O)cc2)cc1` returned a z-score of -0.112.

Turning to `Cc1ccc(N(C)S(=O)(=O)c2cccc(C(=O)NC3=NCCS3)c2)cc1`, the z-score worked out at 0.0685.

`COc1ccc(NC(=S)NN2CCOCC2)cc1OC` returned a z-score of -0.21.

On to `Cc1noc(C)c1C(c1ccccc1)c1ccccc1`, for which the z-score is -0.172.

As to `CCn1c(SCc2nc3ccccc3[nH]2)nnc1-c1cccnc1`, the z-score was -0.0726.

For `Nc1ccccc1Nc1cc(-c2ccccc2)nn1-c1cccc(Cl)c1`, the z-score was -0.443.

For the compound `O=C(Cc1nnc(NC(=O)c2ccccc2)s1)N/N=C/c1ccco1`, the z-score was -0.0768.

Compound `O=C(OCC(=O)N1CCc2ccccc2C1)c1cccc([N+](=O)[O-])c1` showed a z-score of -0.292.

`CCOC(=O)Cn1c(=O)cnc2ccccc21` came in with a z-score of -0.646.

For the compound `COc1ccc(OC)c2c(C)cc(N3CCCN(C)CC3)nc12`, the z-score came to 0.252.

In the case of `CCOc1ccc(Nc2n[nH]c(=S)s2)cc1`, the z-score stood at 0.381.

In the case of `CCOC(=O)c1ccc2cccc(C)n2c1=O`, the z-score was -0.0925.

As for `Cc1cccc(C)c1NC(=O)CCCSc1nnnn1C`, the z-score was -1.66.

Take `CN(Cc1ccccc1)C(=S)Nc1ccc(OC(F)F)cc1`: the z-score is -0.193.

With `CCc1cccc(NC(=O)CSC2=NS(=O)(=O)c3ccccc32)c1`, the z-score is active: 3.52.

The compound `O=C(CC1SC(=NCC2CCCO2)NC1=O)Nc1cccc2ccccc12` (configuration not stated) registered a z-score of -0.724.

With `Cc1ccc([N+](=O)[O-])cc1NC(=O)c1ccc(C(C)(C)C)cc1`, the z-score was -1.53.

Take `Cc1cc(NC(=O)Cc2csc(-c3ccccc3)n2)ccc1Br`: the z-score was -0.317.

On to `CCOc1ccc(OCC)c(NC(=O)CN2CCN(C(=O)c3ccco3)CC2)c1`, for which the z-score worked out at 0.342.

Consider `CCOc1cc(NS(=O)(=O)c2ccc(NC(C)=O)cc2)c(OCC)cc1NC(=O)c1cccs1`, for which the z-score was -0.155.

On to `c1ccc(CNn2nnnc2-c2ccccc2)cc1`, for which the z-score was 0.451.

`Cc1cc(C(=O)O)c(C)n1-c1ccccc1` displayed a z-score of 0.165.

`O=C(CSCCO)Nc1cccc([N+](=O)[O-])c1` showed a z-score of -1.53.

`O=C(CNC(=S)N(CCCN1CCOCC1)Cc1cccs1)NCCCN1CCOCC1`: the z-score was determined as 0.295.

`Cc1cc(OCC(=O)c2ccc(Br)cc2)ccc1N1C(=O)CCC1=O` returned a z-score of 0.164.

The compound `CN1/C(=C\C(=O)c2ccco2)C(C)(C)c2ccccc21` displayed a z-score of -0.359.

As to `Cc1onc(-c2ccccc2Cl)c1C(=O)N1C=CC(C(F)(F)Cl)=NCC1`, the z-score is -0.0476.

In the case of `CC(C)(C)C(=O)Cn1ncc(NC2CC2)c(Br)c1=O`, the z-score was -0.0684.

`CNC(=S)N1CCN(c2c(F)cc3c(=O)c(C(=O)O)cn(C4CC4)c3c2OC)CC1C` (configuration not stated): the z-score is -0.537.

Compound `Cc1cccc2cc(CN(Cc3ccccc3)C(=O)N(C)C)c(=O)[nH]c12` returned a z-score of -0.295.

In turn, `C/C(CC(=O)Nc1ccc2ccccc2c1)=N\NC(=O)c1cnccn1` gave a z-score of -0.0823.

As for `O=C(NNC(=S)NC(=O)C12CC3CC(CC(C3)C1)C2)c1ccncc1`, the z-score came to 0.609.

Compound `N/C(Cc1ccc(Cl)cc1)=N\OC(=O)c1ccc2ccccc2c1` had a z-score of 0.0736.

In the case of `Cc1ccc(NS(=O)(=O)c2ccc(NC(=O)C3CCCO3)cc2)cc1` (configuration not stated), the z-score was determined as 0.664.

Take `Cc1cccn2c(=O)c3cc(C(=O)N4CCN(C(=O)c5ccco5)CC4)n(C)c3nc12`: the z-score is -1.28.

For `Cc1cccn2c(=O)c(/C=C(\C#N)C(N)=O)c(N3CCN(Cc4ccc5c(c4)OCO5)CC3)nc12`, the z-score was -0.0419.

`Clc1ccc(-c2nc3ccncc3[nH]2)cc1` yielded a z-score of 0.48.

`O=C(c1cccnc1)N1CCN(C(=O)c2cccs2)CC1` gave a z-score of -1.34.

As for `CC(C)CC(=O)OC1C(N2CCOCC2)c2c(ccc(/C=C/C(=O)N3CCOCC3)c2O)OC1(C)C` (configuration not stated), the z-score was -0.311.

The compound `Cc1ccc2c(c1)c(C)c(C)n2CC(O)CN1CCCCC1C` (configuration not stated) came in with a z-score of 0.526.

Consider `COc1ccc(NC(=O)NN(C(=O)c2ccccc2)C(C)(C)C)cc1`, for which the z-score is -0.214.

As to `C=CCOc1ccc(C=Nc2ccc(C)c(Cl)c2)c(O)c1`, the z-score is -0.435.

`CCOC(=O)c1c(NC(=O)Nc2ccc(Cl)cc2)sc(C)c1C`: the z-score was -0.143.

For `COC(=O)c1cc(-c2ccccc2)sc1NC(=O)c1cc(C)on1`, the z-score was -0.11.

As for `CCCC(=O)O[C@H]1C[C@@H](C)N(C(=O)c2ccccc2)c2ccc(C)cc21`, the z-score was -0.936.

In the case of `O=C(CSc1nnc(C2CCCCC2)n1-c1ccccc1)NCc1ccco1`, the z-score was -0.483.

As for `O=S(=O)(Cc1ccccc1Cl)N1CCCCC1`, the z-score was -1.07.

In the case of `CC(C)CC(=O)NCCNC(=O)c1cc(OCC(F)(F)F)ccc1OCC(F)(F)F`, the z-score came out at 0.303.

For `O=C(c1ccc(S(=O)(=O)c2ccccc2)cc1)N1CCc2ccccc2C1`, the z-score is -0.983.

In turn, `CC(=O)N(Cc1cc(=O)[nH]c2ccccc12)c1cccc(C)c1` yielded a z-score of -0.204.

In turn, `NC(=O)Cn1cc(C(=O)c2cccs2)c2ccccc21` yielded a z-score of -0.0354.

For the compound `CC(C)C(C(=O)N1CCOCC1)N1C(=O)c2ccccc2C1=O` (configuration not stated), the z-score was 0.147.

For `CN(C)S(=O)(=O)c1ccc2c(c1)nc1n2CCC1`, the z-score came to 0.423.

Take `O=C(CCN1CCN(c2ccccc2)CC1)Nc1ccccc1F`: the z-score is -0.185.

Consider `NC(=O)c1ccccc1NC(=O)/C=C/c1cccc(Cl)c1`, for which the z-score is -0.189.

`COc1ccc(-c2nc(CSCC(=O)NCc3ccc4c(c3)OCO4)c(C)o2)cc1` registered a z-score of -0.196.

Consider `O=C(c1ccc(COc2ccccc2Cl)o1)N1CCN(Cc2ccc3c(c2)OCO3)CC1`, for which the z-score came out at 0.102.

Consider `COc1ccccc1NC(=O)COc1ccc(CO)cc1Cl`, for which the z-score is -1.6.

The compound `CC(=O)N1c2ccccc2C(C)CC12CCCCC2` (configuration not stated) gave a z-score of -0.188.

In turn, `COc1ccc(Oc2nnc(-c3ccccc3)cc2C#N)cc1` registered a z-score of -0.0586.

Regarding `CCOC(=O)NC(=O)/C(C#N)=N/Nc1ccc(F)cc1`, the z-score was -0.295.

`COCCn1c(Cc2ccccc2)nnc1SCC(=O)NC(C)(C)C` showed a z-score of -0.195.

Regarding `CC(=O)N1CCC(C(=O)c2ccc(Cl)cc2)CC1`, the z-score came out at 0.113.

As to `CCOC(=O)NC(Nc1nnc(C)s1)(C(=O)OCC)C(F)(F)F` (configuration not stated), the z-score was 0.168.

With `COc1ccc(NS(=O)(=O)c2ccc3nc(COc4ccc5ccccc5c4)[nH]c3c2)cc1`, the z-score was -0.421.

The compound `COCC(C)n1c(SCc2ccc(C(=O)OC)o2)nc2ccccc2c1=O` (configuration not stated) registered a z-score of -0.54.

In turn, `CC(C)(C)NC(=O)NC(=O)COC(=O)c1ccc2c(c1)S(=O)(=O)N=C1CCCCCN12` yielded a z-score of -0.0528.

Consider `O=C(COC(=O)COc1ccccc1Cl)Nc1ccccc1OC(F)F`, for which the z-score was -0.428.

In turn, `Cc1cnc(NC(=O)CSc2nnc(Cc3ccccc3)n2C)s1` displayed a z-score of -0.0432.

The compound `O=C(O)c1cccc(C(=O)Cc2ccccc2)c1` displayed a z-score of -0.369.

In turn, `CCOc1ccc(OCC)c(NC(=O)CSc2nnnn2CC)c1` displayed a z-score of 0.212.

The compound `Cc1ccc(NC(=S)C2=C(O)c3sccc3N(C)S2(=O)=O)cc1` displayed a z-score of 0.0742.

Consider `CCOc1ccc(-n2c(=O)cc(N3CCN(c4ccccc4)CC3)[nH]c2=O)cc1`, for which the z-score was found to be 0.106.

As to `COCCNC(=O)c1onc(CSc2cccc(Cl)c2)c1C(=O)O`, the z-score was -0.0118.

As to `N#Cc1c(N2CCOCC2)nc(-c2ccco2)c2c1CCCC2`, the z-score is -0.0657.

`CCC(C)NC(=O)CNC(=S)N(CCCN1CCOCC1)Cc1cccs1` (configuration not stated) showed a z-score of -0.563.

Consider `COc1c(C)cc(Br)cc1C(=O)Nc1ccc(N2CCN(S(C)(=O)=O)CC2)cc1`, for which the z-score is -0.208.

As to `Cc1nn(-c2ccccc2)c(N2CCCC2)c1/C=N/NC(=O)c1cc(-c2cccnc2)nc2ccccc12`, the z-score was -0.311.

For the compound `CCC1NC(=S)N(C2CCCCC2)C1=O` (configuration not stated), the z-score was -0.196.

Take `Cc1c(Cl)c(C(F)(F)F)nn1CC(=O)N1CCSCC1`: the z-score worked out at 0.425.
